In the supplement of paper PMC8728848:
The list shows a part of the results.

Assays:
Assay in all cases: glycan array binding signal (z-score within array); higher = stronger binding
Conditions in all cases: glycan notation: IUPAC condensed, linker removed
Fuc(a1-2)Gal = target: Fuc(a1-2)Gal
Outline: (§1)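 From the Consortium for Functional Glycomics database, 3228 arrays were curated, keeping only those whose protein sequence was available. Binding is given as a within-array Z-score averaged across arrays sharing a protein sequence and across linkers. Negative Z-scores can be read as non-binding.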

Fuc(a1-2)Gal(b1-3)GalNAc = target: Fuc(a1-2)Gal(b1-3)GalNAc
Outline: as §1

[1] = target: Fuc(a1-2)Gal(b1-3)GalNAc(b1-3)Gal
Outline: as §1

[2] = target: Fuc(a1-2)Gal(b1-3)GalNAc(b1-3)Gal(a1-4)Gal(b1-4)Glc
Outline: as §1

[3] = target: Fuc(a1-2)Gal(b1-3)GalNAc(b1-3)Gal(b1-4)Glc
Outline: as §1

[4] = target: Fuc(a1-2)Gal(b1-3)GalNAc(b1-4)[Neu5Ac(a2-3)]Gal(b1-4)Glc
Outline: as §1

[5] = target: Fuc(a1-2)Gal(b1-3)[Fuc(a1-4)]GlcNAc
Outline: as §1

Fuc(a1-2)Gal(b1-4)Glc = target: Fuc(a1-2)Gal(b1-4)Glc
Outline: as §1

Fuc(a1-2)Gal(b1-4)Glc6S = target: Fuc(a1-2)Gal(b1-4)Glc6S
Outline: as §1

Fuc(a1-2)Gal(b1-4)GlcNAc = target: Fuc(a1-2)Gal(b1-4)GlcNAc
Outline: as §1

[6] = target: Fuc(a1-2)Gal(b1-4)GlcNAc(b1-3)Gal(b1-4)GlcNAc
Outline: as §1

[7] = target: Fuc(a1-2)Gal(b1-4)GlcNAc(b1-3)Gal(b1-4)GlcNAc(b1-3)Gal(b1-4)GlcNAc
Outline: as §1

[8] = target: Fuc(a1-2)Gal(b1-4)GlcNAc6S
Outline: as §1

[9] = target: Fuc(a1-2)Gal(b1-4)[Fuc(a1-3)]GalNAc(b1-3)Gal(b1-4)[Fuc(a1-3)]GlcNAc
Outline: as §1

[10] = target: Fuc(a1-2)Gal(b1-4)[Fuc(a1-3)]GalNAc(b1-3)Gal(b1-4)[Fuc(a1-3)]GlcNAc(b1-3)Gal(b1-4)[Fuc(a1-3)]GalNAc
Outline: as §1

[11] = target: Fuc(a1-2)Gal(b1-4)[Fuc(a1-3)]GlcNAc
Outline: as §1

Fuc(a1-2)Gal6S(b1-4)Glc = target: Fuc(a1-2)Gal6S(b1-4)Glc
Outline: as §1

[12] = target: Fuc(a1-2)Gal6S(b1-4)Glc6S
Outline: as §1

[13] = target: Fuc(a1-2)Gal6S(b1-4)GlcNAc
Outline: as §1

Fuc(a1-2)GlcNAc = target: Fuc(a1-2)GlcNAc
Outline: as §1

Fuc(a1-2)[Gal(a1-3)]Gal = target: Fuc(a1-2)[Gal(a1-3)]Gal
Outline: as §1

[14] = target: Fuc(a1-2)[Gal(a1-3)]Gal(b1-3)GlcNAc
Outline: as §1

[15] = target: Fuc(a1-2)[Gal(a1-3)]Gal(b1-4)Glc
Outline: as §1

[16] = target: Fuc(a1-2)[Gal(a1-3)]Gal(b1-4)GlcNAc
Outline: as §1

[17] = target: Fuc(a1-2)[Gal(a1-3)]Gal(b1-4)[Fuc(a1-3)]GlcNAc
Outline: as §1

[18] = target: Fuc(a1-2)[Gal(a1-4)]Gal(b1-4)GalNAc
Outline: as §1

[19] = target: Fuc(a1-2)[GalNAc(a1-3)]Gal
Outline: as §1

[20] = target: Fuc(a1-2)[GalNAc(a1-3)]Gal(b1-3)GlcNAc
Outline: as §1

[21] = target: Fuc(a1-2)[GalNAc(a1-3)]Gal(b1-4)Glc
Outline: as §1

[22] = target: Fuc(a1-2)[GalNAc(a1-3)]Gal(b1-4)GlcNAc
Outline: as §1

[23] = target: Fuc(a1-2)[GalNAc(a1-3)]Gal(b1-4)[Fuc(a1-3)]GlcNAc
Outline: as §1

[24] = target: Fuc(a1-2)[GalNAc(a1-4)]Gal(b1-4)GlcNAc
Outline: as §1

Fuc(a1-3)GlcNAc = target: Fuc(a1-3)GlcNAc
Outline: as §1

[25] = target: Fuc(a1-3)[Gal(b1-4)]Glc6S
Outline: as §1

[26] = target: Fuc(a1-3)[Gal(b1-4)]GlcNAc
Outline: as §1

[27] = target: Fuc(a1-3)[Gal(b1-4)]GlcNAc(b1-3)Gal(b1-3)[Fuc(a1-4)]GlcNAc
Outline: as §1

[28] = target: Fuc(a1-3)[Gal(b1-4)]GlcNAc(b1-4)Gal(b1-4)[Fuc(a1-3)]GlcNAc
Outline: as §1

[29] = target: Fuc(a1-3)[Gal(b1-4)]GlcNAc(b1-4)Gal(b1-4)[Fuc(a1-3)]GlcNAc(b1-4)Gal(b1-4)[Fuc(a1-3)]GlcNAc
Outline: as §1

[30] = target: Fuc(a1-3)[Gal(b1-4)]GlcNAc6S
Outline: as §1

[31] = target: Fuc(a1-3)[Gal3S(b1-4)]Glc
Outline: as §1

[32] = target: Fuc(a1-3)[Gal3S(b1-4)]Glc6S
Outline: as §1

[33] = target: Fuc(a1-3)[Gal3S(b1-4)]GlcNAc
Outline: as §1

[34] = target: Fuc(a1-3)[Gal3S(b1-4)]GlcNAc6S
Outline: as §1

[35] = target: Fuc(a1-3)[GalNAc(b1-4)]Gal(b1-4)GlcNAc
Outline: as §1

Fuc(a1-4)GlcNAc = target: Fuc(a1-4)GlcNAc
Outline: as §1

B1: LEA (Lycopersicon esculentum) (protein)
chain: NEVFDVPMNETIGVESINASVGGYPRCGAQGDGGNCPSGMCCSVWGWCGKTYGYCAPQNCQKQCPAPYPEGRCGWQADGKSCPNGKCCSYGGWCGTTSDYCARQNCQKQCILPSPPPPPPPPPGFPRPECGLQKNGERCTKPGECCSIWGLCGATYKYCDPQHCQKQCSAPFPPGRCGWQADGRPCPTGQCCSFSGWCGTTSAHCTYPQCVSQCNDPRFPSSLNNRIQSFML
glycan array binding signal (z-score) (Fuc(a1-2)Gal): -0.538
glycan array binding signal (z-score) (Fuc(a1-2)Gal(b1-3)GalNAc): -0.556
glycan array binding signal (z-score) [1]: -0.547
glycan array binding signal (z-score) [2]: -0.539
glycan array binding signal (z-score) [3]: -0.549
glycan array binding signal (z-score) [4]: -0.531
glycan array binding signal (z-score) [5]: -0.562
glycan array binding signal (z-score) (Fuc(a1-2)Gal(b1-4)Glc): -0.541
glycan array binding signal (z-score) (Fuc(a1-2)Gal(b1-4)Glc6S): -0.54
glycan array binding signal (z-score) (Fuc(a1-2)Gal(b1-4)GlcNAc): 1.11
glycan array binding signal (z-score) [6]: 1.72
glycan array binding signal (z-score) [7]: 2.27
glycan array binding signal (z-score) [8]: 1.4
glycan array binding signal (z-score) [9]: -0.557
glycan array binding signal (z-score) [10]: -0.543
glycan array binding signal (z-score) [11]: -0.555
glycan array binding signal (z-score) (Fuc(a1-2)Gal6S(b1-4)Glc): -0.548
glycan array binding signal (z-score) [12]: -0.512
glycan array binding signal (z-score) [13]: -0.55
glycan array binding signal (z-score) (Fuc(a1-2)GlcNAc): -0.537
glycan array binding signal (z-score) (Fuc(a1-2)[Gal(a1-3)]Gal): -0.548
glycan array binding signal (z-score) [14]: -0.552
glycan array binding signal (z-score) [15]: -0.539
glycan array binding signal (z-score) [16]: 2.51
glycan array binding signal (z-score) [17]: -0.548
glycan array binding signal (z-score) [18]: 2.53
glycan array binding signal (z-score) [19]: -0.561
glycan array binding signal (z-score) [20]: -0.547
glycan array binding signal (z-score) [21]: -0.564
glycan array binding signal (z-score) [22]: 2.5
glycan array binding signal (z-score) [23]: -0.546
glycan array binding signal (z-score) [24]: 2.62
glycan array binding signal (z-score) (Fuc(a1-3)GlcNAc): -0.545
glycan array binding signal (z-score) [25]: -0.535
glycan array binding signal (z-score) [26]: -0.562
glycan array binding signal (z-score) [27]: -0.561
glycan array binding signal (z-score) [28]: -0.522
glycan array binding signal (z-score) [29]: -0.541
glycan array binding signal (z-score) [30]: -0.39
glycan array binding signal (z-score) [31]: -0.554
glycan array binding signal (z-score) [32]: -0.541
glycan array binding signal (z-score) [33]: -0.505
glycan array binding signal (z-score) [34]: 0.546
glycan array binding signal (z-score) [35]: -0.537
glycan array binding signal (z-score) (Fuc(a1-4)GlcNAc): -0.552
